The whole screen tested about 420,000 compounds, of which about 64,000 (15%) were called active. Inconclusive means that the source gave no clear call. Such entries were picked first, then a sample of the others. The call rests on the fitted dose curve; in most records, active means well fitted inhibition curve with a large enough effect; inconclusive means small, poorly fitted or top-dose-only effect; inactive means flat fitted curve, though single readings scatter. No potency is given beside an inconclusive call; the fits are too rough.
Test: qHTS for Inhibitors of human tyrosyl-DNA phosphodiesterase 1 (TDP1): qHTS in cells in absence of CPT; further: nearly all actives have a fitted effect of over 55% in size
Settings: DT40 Tdp1-/- hTDP1 cells, no CPT, ATP luminescence, 48 h; activity change, negative = growth inhibition: at 46.2 µM (top of the series) unless noted
Method in brief: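 Growth of hTDP1-complemented DT40 Tdp1-knockout cells is measured by ATP luminescence after at least 48 hr compound exposure at 37 °C, with DMSO substituting for the 20 nM CPT used in the parallel screen.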
On the % scale 0 is the no-effect control and ±100 the full control effect; potency means the concentration at half of the fitted maximal effect; tags describe the fitted curve by direction and shape.

With `COc1cccc(CN2CCN(C(=O)COc3ccc4ccccc4c3)CC2)c1` as the compound, how does the Potency read?
The Potency was inconclusive [inhibitor, single point].

With `O=C(O)c1ccc2[nH]cc(CCCCN3CC=C(c4ccccc4)CC3)c2c1` as the compound, how does the “activity change, negative = growth inhibition” value read?
Its value is inactive: -11.1%.

Which Potency does the source give for `CNc1ccc2oc(C[C@H]3O[C@@]4(CC[C@H]3C)O[C@H]([C@H](C)C(=O)c3ccc[nH]3)[C@H](C)C[C@H]4C)nc2c1C(=O)O` here?
The Potency was active: 0.184 µM.

Which Potency does the source give for `COc1ccc(C2=NCc3nnc(C)n3-c3ccc(Cl)cc32)cc1Cl` here?
Its Potency is inconclusive [inhibitor, single point].

For `CCOc1ccc(C(=O)N2CCC(c3noc(-c4ccc(S(=O)(=O)N5CCCC5)cc4)n3)CC2)cc1`, which Potency is on record?
Its Potency is active: 16.4 µM.

With `CC(C)c1ccc(Oc2cccc3c2S(=O)(=O)N(C2CCCC2)CC(COCc2ccccc2)O3)cc1` (stereo not given) as the compound, how does the Potency read?
The Potency was active: 9.2 µM.

Which Potency does the source give for `CC(C)c1ccc(OCC(=O)N2CCN(CCc3ccccn3)CC2)cc1` here?
Its Potency is inconclusive [inhibitor, single point].

For `O=[N+]([O-])c1ccc2nc(CCCc3nc4ccc([N+](=O)[O-])cc4[nH]3)[nH]c2c1`, which Potency is on record?
The Potency was inconclusive [inhibitor, single point].

For `CNC(=O)O/N=C(\N)Cc1csc2ccc(Cl)cc12`, which Potency is on record?
Its Potency is inconclusive [inhibitor, single point].

For `CCCCCn1c(=O)c(C(=O)Nc2nc(CC(=O)OCC)cs2)c(O)c2ccccc21`, which Potency is on record?
The Potency was active: 4.61 µM.

For `O=C(Nc1ccccc1)c1cc(C2CCCN(C(=O)C3CC3)C2)on1` (stereo not given), which Potency is on record?
The Potency was inconclusive [inhibitor, single point].

Which Potency does the source give for `Cc1ccc(-n2c(-c3cccs3)nc3ccccc3c2=O)cc1` here?
Its Potency is active: 11.6 µM.

Which Potency does the source give for `CCOC(=O)c1ncn2c1[C@H]1CCCN1C(=O)c1cc(OC)ccc1-2` here?
Its Potency is inconclusive [inhibitor, partial curve, poor fit].

For `CCC1(C)Cc2ccccc2-c2c1c(=O)n(Cc1ccccc1)c1nnnn21` (stereo not given), which Potency is on record?
The Potency was inconclusive [inhibitor, partial curve, poor fit].

For `COc1cc(CC2C(=O)N(C)C(=O)N(C)C2=O)ccc1OCc1ccccc1`, which “activity change, negative = growth inhibition” value is on record?
Its value is inactive: -19.4%.

Which “activity change, negative = growth inhibition” value does the source give for `Cc1ccc(OCC(=O)N2CCN(CCc3ccncc3)CC2)cc1` here?
Its value is inactive: -9.06%.

Which Potency does the source give for `COc1cccc(CNCCc2ccc(F)cc2)c1` here?
The Potency was inconclusive [inhibitor, single point].

With `Cc1cccc(C)c1-n1nnnc1C(c1ccnc2ccccc12)N1CCC2(CC1)C(=O)NCN2c1ccccc1` (stereo not given) as the compound, how does the Potency read?
The Potency was active: 14.6 µM.

Which Potency does the source give for `CC[C@]12CC[C@H](O)CC1=CCC1C2CC[C@]2(C)C(=O)CCC12` (stereo not given in full) here?
The Potency was inconclusive [inhibitor, single point].

For `CC1(C)NC(=S)C(C)(C)N1N=O`, which “activity change, negative = growth inhibition” value is on record?
The value was inactive: -1.96%.

Which Potency does the source give for `COC(=O)C1=C(c2ccccc2)C[C@@H]2CC[C@H]1N2C(=O)NCC1CC1` here?
Its Potency is inconclusive [inhibitor, partial curve, poor fit].

Which Potency does the source give for `CCOC(=O)c1c(C)[nH]c(C)c1C(=O)C(Cc1ccccc1)N(C)C` (stereo not given) here?
Its Potency is inconclusive [inhibitor, single point].

With `O=c1c2cc(N3CCOCC3)ccc2[nH]c(=S)n1Cc1ccc(Cl)cc1` as the compound, how does the Potency read?
Its Potency is active: 14.6 µM.

For `COc1ccc2o/c(=N\O)c(C(=O)Nc3ccc(C)cc3)cc2c1`, which Potency is on record?
The Potency was inconclusive [inhibitor, single point].

Which “activity change, negative = growth inhibition” value does the source give for `O=C(c1cc2ccccn2n1)N1CCC2(CC1)OCCO2` here?
Its value is inactive: -10.8%.

With `CNC(=O)c1cccn(Cc2cc(C(F)(F)F)cc(C(F)(F)F)c2)c1=O` as the compound, how does the Potency read?
Its Potency is inconclusive [inhibitor, single point].

With `COc1cc(OC)cc(C2(C#N)CCN(C)CC2)c1` as the compound, how does the “activity change, negative = growth inhibition” value read?
The value was inactive: 6.77%.

Which Potency does the source give for `CCCCOC(=O)n1c(=O)oc2ccccc21` here?
Its Potency is inconclusive [inhibitor, single point].

For `Cc1cccc(Cn2cccc(C(=O)Nc3ccc(F)cc3F)c2=O)c1`, which Potency is on record?
The Potency was inconclusive [inhibitor, partial curve].

For `CCc1cc2c(cc1-c1csc(C/C(N)=N/O)n1)C(C)(C)CCC2(C)C`, which Potency is on record?
The Potency was active: 18.4 µM.

With `CCNC(=S)NCCC1=c2ccccc2=N/C1=C\c1c(O)n(C)c(=O)n(C)c1=O` as the compound, how does the Potency read?
The Potency was active: 20.6 µM.

For `Cc1ccc2c(c1)C1CN(C)CCC1N2C(=O)Cn1nnc(-c2ccccc2F)n1` (stereo not given), which “activity change, negative = growth inhibition” value is on record?
The value was inactive: -3.75%.

With `C/C(=N\Nc1cccc2ccccc12)c1c(O)n(Cc2ccccc2)c(=O)[nH]c1=O` as the compound, how does the Potency read?
The Potency was active: 20.6 µM.

Which “activity change, negative = growth inhibition” value does the source give for `CCN1C[C@]2(COC)[C@H](O)C[C@H](OC)[C@@]34[C@@H]5C[C@@]6(O)[C@H](OC(=O)c7ccccc7)[C@@H]5[C@@](OC(C)=O)([C@@H]([C@H](OC)[C@H]23)[C@@H]14)[C@@H](O)[C@@H]6OC` here?
Its value is inactive: -7.56%.

With `O=C1/C(=C\c2ccc(Cl)c(Cl)c2)N2CCC1CC2` as the compound, how does the Potency read?
Its Potency is inconclusive [inhibitor, partial curve].

Which Potency does the source give for `COC(=O)[C@@H]1C[C@H]1[C@@H](NP(=O)(c1ccccc1)c1ccccc1)c1ccccc1` here?
Its Potency is inconclusive [inhibitor, single point].

With `CC(C)OC(=O)c1c(N)n(Cc2ccco2)c2nc3ccccc3nc12` as the compound, how does the Potency read?
Its Potency is inconclusive [inhibitor, single point].

Which Potency does the source give for `Cc1nn(Cc2ccccc2Cl)c(C)c1C(=O)OCC(=O)NC1CCCC(C)C1C` (stereo not given) here?
Its Potency is active: 23.1 µM.

For `C=CC1CN2CCC1CC2C(OC(C)=O)c1ccnc2ccc(OC)cc12` (stereo not given), which “activity change, negative = growth inhibition” value is on record?
The value was inactive: -7.54%.

Which “activity change, negative = growth inhibition” value does the source give for `Cn1c(=O)[nH]c2nncnc2c1=O` here?
Its value is inactive: 6.22%.

Which Potency does the source give for `Nc1nnc(P(c2ccccc2)c2ccccc2)s1` here?
The Potency was inconclusive [inhibitor, single point].

Which Potency does the source give for `O=C1NC(=O)N(c2ccc(Cl)cc2)C(=O)/C1=C/c1coc2ccc(O)cc2c1=O` here?
Its Potency is active: 14.6 µM.

For `C[C@]12CCC3C(CC[C@H]4C[C@H](O)CC[C@]34C)C1C[C@@H](O)[C@H]2O` (stereo not given in full), which Potency is on record?
The Potency was inconclusive [inhibitor, partial curve, poor fit].

For `O=C(CN1CC=C(c2ccccc2)CC1)NC(=O)NC1CCCCC1`, which activity change, negative = growth inhibition is on record?
Its activity change, negative = growth inhibition is inconclusive: -32.1% [inhibitor].

With `CN1CCN(c2cc(N3CCCCCC3)c(F)cc2[N+](=O)[O-])CC1` as the compound, how does the Potency read?
Its Potency is active: 29.1 µM.

Which Potency does the source give for `Cc1ccc(S(=O)(=O)N(CC(=O)NCCSc2ccc(Cl)cc2)c2ccccc2C)cc1` here?
The Potency was active: 23.1 µM.

Which Potency does the source give for `COc1ccc2c3c([nH]c2c1)C(C)NCC3` (stereo not given) here?
The Potency was inconclusive [inhibitor, partial curve].

For `Cc1cc(/C=C2\C(=O)NC(=O)N(c3ccccc3)C2=O)c(C)n1-c1ccc(C(=O)O)c(Cl)c1`, which “activity change, negative = growth inhibition” value is on record?
Its value is inactive: 10.9%.

With `CCCCC[C@H]1CCCCC[C@@H](O)C[C@@H](O)[C@@H](O)/C=C/C(=O)O1` as the compound, how does the Potency read?
Its Potency is active: 9.2 µM.

For `Clc1cccc(C(c2ccc3nc[nH]c3c2)n2ccnc2)c1` (stereo not given), which Potency is on record?
Its Potency is active: 26.6 µM.

Which activity change, negative = growth inhibition does the source give for `CC(=O)Nc1ccccc1C(=O)OCc1cccc(F)c1` here?
The activity change, negative = growth inhibition was inconclusive: -32.6% [inhibitor].

For `CC1=C[C@H](O)CC(C)(C)[C@H]1/C=C/C(C)=C/C=C/C(C)=C/C=C/C=C(C)/C=C/C=C(C)/C=C/C1=C(C)C[C@@H](O)CC1(C)C`, which Potency is on record?
The Potency was inconclusive [inhibitor, single point].

Which “activity change, negative = growth inhibition” value does the source give for `CC1(O)CCC2C3CCC4=CC(=O)CCC4(C)C34OC4CC21C` (stereo not given) here?
The value was inactive: -6.35%.

With `CNc1ccc(C(=O)CC(O)CCC(C)C2OC(=O)CC(O)CC(=O)CC(O)CC(O)CC(O)CC(O)CC3(O)CC(O)C(C(=O)OC)C(CC(O[C@@H]4O[C@H](C)[C@@H](O)[C@H](N)[C@@H]4O)/C=C/C=C/C=C/C=C/C=C/C=C/C=C/C2C)O3)cc1` (stereo not given in full) as the compound, how does the “activity change, negative = growth inhibition” value read?
Its value is inactive: -24.1%.

For `CCc1cc(=O)oc2cc(C)cc(OCC(=O)N3CCC(C(=O)O)(c4ccccc4)CC3)c12`, which “activity change, negative = growth inhibition” value is on record?
Its value is inactive: -3.11%.

With `CC(C)(C)NC(=O)CN1CCCN(C(=O)COc2ccc(Cl)c3ccccc23)CC1` as the compound, how does the Potency read?
Its Potency is inconclusive [inhibitor, single point].

With `Fc1ccc(CCNCc2ccc(Cl)c(Cl)c2)cc1` as the compound, how does the “activity change, negative = growth inhibition” value read?
The value was inactive: -26%.

For `Cc1ccc(C[N+](C)(C)C)o1`, which Potency is on record?
The Potency was “inactive”.

Which Potency does the source give for `CCN(CC)C(=O)c1ccc(NC(=O)COc2ccc([N+](=O)[O-])cc2Cl)cc1` here?
The Potency was active: 20.6 µM.

With `Cc1cc(C)c(S(=O)(=O)N2Cc3ccccc3-n3nncc3C2)c(C)c1` as the compound, how does the Potency read?
Its Potency is active: 2.06 µM.

Which Potency does the source give for `C[C@@H]1CN([C@H](C)CO)C(=O)c2c(c3ccccc3n2C)-c2ccccc2CO[C@H]1CN(C)C(=O)Cc1ccccc1` here?
The Potency was active: 13 µM.

With `O=C(NCC1=C(c2cccc3ccccc23)C[C@@H]2CC[C@H]1N2Cc1ccco1)c1cccnc1` as the compound, how does the Potency read?
Its Potency is inconclusive [inhibitor, single point].

With `COc1ccc(/C=C2\C(=O)NC(=O)N(Cc3ccccc3)C2=O)c(OC)c1OC` as the compound, how does the Potency read?
Its Potency is inconclusive [inhibitor, partial curve].

With `Cc1cc(O)c2c3c(c(=O)oc2c1)CCC(C)C3` (stereo not given) as the compound, how does the Potency read?
The Potency was active: 11.6 µM.

For `CSc1ccccc1C(=O)C1CCCN(Cc2cccc(C)n2)C1` (stereo not given), which Potency is on record?
Its Potency is inconclusive [inhibitor, single point].

For `COC(=O)C1=C(c2cccc(C#N)c2)C[C@@H]2CC[C@H]1N2C(=O)NCC1CC1`, which “activity change, negative = growth inhibition” value is on record?
Its value is inactive: 2.02%.

Which Potency does the source give for `O=c1[nH]c2ccccc2n1C1CCN(Cc2ccc(-c3[nH]c4cc5ncnc5cc4nc3-c3ccccc3)cc2)CC1` here?
The Potency was active: 2.91 µM.

Which Potency does the source give for `Fc1ccc(NC(=S)N2Cc3ccccc3-n3nncc3C2)cc1` here?
The Potency was inconclusive [inhibitor, single point].

Which Potency does the source give for `COc1cccc(-c2nn3c(=O)cc(CN4CCN(C(=O)COc5ccccc5C)CC4)nc3s2)c1` here?
The Potency was active: 23.1 µM.

With `CNC(C)Cc1ccccc1Sc1ccc(O)cc1` (stereo not given) as the compound, how does the Potency read?
Its Potency is inconclusive [inhibitor, single point].
